Data taken from PMC7819943, “Rice protein-binding microarrays: a tool to detect cis-acting elements near promoter regions in rice”.
This is one part of the list.

Biological target: T1, OsWOX13 (Oryza sativa, UniProt Q5QMM3 1-267)
T1 sequence: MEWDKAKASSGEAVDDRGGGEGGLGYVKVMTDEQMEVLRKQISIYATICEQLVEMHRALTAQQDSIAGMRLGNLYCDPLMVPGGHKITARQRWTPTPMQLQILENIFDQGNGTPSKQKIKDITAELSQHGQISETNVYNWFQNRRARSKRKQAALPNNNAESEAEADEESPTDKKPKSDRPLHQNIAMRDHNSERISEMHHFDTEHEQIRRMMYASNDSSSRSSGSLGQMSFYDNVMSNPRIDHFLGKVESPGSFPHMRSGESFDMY
Experiment: protein-binding microarray (RPBM); PBS, 2% BSA, 51.3 ng/ul salmon testes DNA, 50 uM zinc acetate, 200 nM TF, 25 C, 1 h; high values mean tight binding
Conditions: protein: recombinant; tags: N-terminal polyhistidine and DsRed monomer fusion (pET32a); label: CyDye5-dUTP incorporated in the synthesized complementary strand; 3' TTTTT single-stranded linker to array surface; dsDNA, one strand shown
Summary of the method: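 Polyhistidine-tagged DsRed fusions of transcription factors, joined at the N-terminus, were expressed in E. coli BL21-CodonPlus and isolated on Ni–NTA. They were incubated at 200 nM for 1 h at 25 °C on a custom Agilent array, double-stranded and BSA-blocked, in PBS with 2% BSA, salmon testes DNA and 50 µM zinc acetate. The binding signal is per-feature fluorescence intensity (arbitrary units) read on an Axon 4000B scanner after washing.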

Sequence	binding signal
GGTATTAACTTAGAACACTAAATTGGATTCATATGGTTCACGGAGTCACCTAGTGCAG	4450 fluorescence intensity (a.u.)
TGAGCTATTATTGATTAACATAAGTTCAGGTGGGTTTCTTCGGAGTCACCTAGTGCAG	11900 fluorescence intensity (a.u.)
AGATAAATCACATTTACATGCAAATGATTCCACTTGTCATCGGAGTCACCTAGTGCAG	7850 fluorescence intensity (a.u.)
CTAATAACAAAACAAATTATAGATTCCGACTGTAAACTGCCGGAGTCACCTAGTGCAG	8560 fluorescence intensity (a.u.)
AGATAGATTAATATATAATATATCTTATTGCAAACATGCGCGGAGTCACCTAGTGCAG	19400 fluorescence intensity (a.u.)
GGTTTGGATGATTAGCTACACGTAAAACGAGAAACGCGGTCGGAGTCACCTAGTGCAG	14100 fluorescence intensity (a.u.)
CACTACAACAGATTGGTAACATCGAGTACCAGACAGATTGCGGAGTCACCTAGTGCAG	13600 fluorescence intensity (a.u.)
GATAATTCTTATGTTACTGACTAATATGATAGTACTGAGTCGGAGTCACCTAGTGCAG	5770 fluorescence intensity (a.u.)
TAATTTGATTGTGTTGCATATTCAAAATTTTAACTTTATTCGGAGTCACCTAGTGCAG	13900 fluorescence intensity (a.u.)
ACCATTTTAATTACTACTTAATGACATTATTTATGCTTCGCGGAGTCACCTAGTGCAG	20800 fluorescence intensity (a.u.)
TTGAATTAATTTAATTATTAATAACTGCACCACACGCGCTCGGAGTCACCTAGTGCAG	41100 fluorescence intensity (a.u.)
AATTGTGATTTTGCTATCGCAAAAGATTGGTTTCGCTGAACGGAGTCACCTAGTGCAG	6300 fluorescence intensity (a.u.)
TATAATTTGACAATGTAATGCTACATAAAACATTTGCTAACGGAGTCACCTAGTGCAG	28200 fluorescence intensity (a.u.)
ATAGATAGATTTCTCCATAAGTAATTACATTGTAGGTAGGCGGAGTCACCTAGTGCAG	28500 fluorescence intensity (a.u.)
CAAGATTGGGACAAAATATCATCTTCGCTTGAGGAAATGACGGAGTCACCTAGTGCAG	7720 fluorescence intensity (a.u.)
CCTACAATAGACAAATTTAAAACCGGTTCGATTCTTCAGACGGAGTCACCTAGTGCAG	4420 fluorescence intensity (a.u.)
TTCTAATTTTATAAAATTTGAATGGCATATTTATAAATATCGGAGTCACCTAGTGCAG	9090 fluorescence intensity (a.u.)
TTATTGATTGTTCGAATTTTAAAAGTTTTAATTGAATGTTCGGAGTCACCTAGTGCAG	45200 fluorescence intensity (a.u.)
AGCTAAATCTGTGATTGCCGTTGCATCTAGCCACGTCGTCCGGAGTCACCTAGTGCAG	14600 fluorescence intensity (a.u.)
GCAAAGTTCACTGCAAATGATTAGATCCTAATTCCCAGACCGGAGTCACCTAGTGCAG	3160 fluorescence intensity (a.u.)
ATTAGCTAATACTTAATTAATCACATACTAATGGACCGTTCGGAGTCACCTAGTGCAG	5940 fluorescence intensity (a.u.)

Sequence	binding signal
AAAATGATTTATTAATCATTACATGACTAAAATCATAAGCCGGAGTCACCTAGTGCAG	38300 fluorescence intensity (a.u.)
ATCTCAAATTTTGCAAATTTATAATGGTATGGTTCCATCTCGGAGTCACCTAGTGCAG	9580 fluorescence intensity (a.u.)
CCATTACGTGATCACAGATTGATCAAGAAATGCTTGACGACGGAGTCACCTAGTGCAG	19600 fluorescence intensity (a.u.)
ATTGATGATTGAAATTTGCTGTGCAAATCGAGAACTGAAGCGGAGTCACCTAGTGCAG	53500 fluorescence intensity (a.u.)
TGCCTAATCAATCCATCAAAATTTCTCGACTTGCCTGAGACGGAGTCACCTAGTGCAG	18000 fluorescence intensity (a.u.)
TATCGATCGATTGATTGCTATAGCTAGGTCAAATCGATCGCGGAGTCACCTAGTGCAG	28100 fluorescence intensity (a.u.)
AATGATTAACGATGTGGAGTATGTGGATAATATTAGGCAACGGAGTCACCTAGTGCAG	29000 fluorescence intensity (a.u.)
TTGGATATTAGTAGTAGATTGGCCAACATCACCATGTCAACGGAGTCACCTAGTGCAG	6380 fluorescence intensity (a.u.)
GCCACTAAATTAATCCGGTGATTGATCATGTGTGGAAGCACGGAGTCACCTAGTGCAG	54200 fluorescence intensity (a.u.)
TAAAATTAAATTTAAGTTATCATAAATTTAAGGTGAAACGCGGAGTCACCTAGTGCAG	11100 fluorescence intensity (a.u.)
GTCCGGCATGATTGATCGGAGTGGTCGGCCCGAGCCACGTCGGAGTCACCTAGTGCAG	24300 fluorescence intensity (a.u.)
CGAACAGATTGATTCGCTTCGATTCGAGGGAGGAGGGGAGCGGAGTCACCTAGTGCAG	15400 fluorescence intensity (a.u.)
ATATTTATGTAATTATTAGTTGTAGATGACAGGTATAGTACGGAGTCACCTAGTGCAG	4700 fluorescence intensity (a.u.)
GATCCTAATTACGCCAGCTTACCATGTCTGCAGAGAAAACCGGAGTCACCTAGTGCAG	5580 fluorescence intensity (a.u.)
GGAAGATTGAGACGAGGCAGATTGTGGTGGAGGAGACTAGCGGAGTCACCTAGTGCAG	21500 fluorescence intensity (a.u.)
CTACCTGGATTGGATTGGATACACAGAATTCTAGTTAGAACGGAGTCACCTAGTGCAG	8770 fluorescence intensity (a.u.)
ACATGTAATTGAATAAATATTATTGGTCAAAGTTTGAGAACGGAGTCACCTAGTGCAG	26300 fluorescence intensity (a.u.)
AAATAATTAAATAACATAAGAAAGGAACAGCTTACCTAATCGGAGTCACCTAGTGCAG	20400 fluorescence intensity (a.u.)
ATAATTCTAAAATATTTAATTTAAATCCTACAATACGATACGGAGTCACCTAGTGCAG	3820 fluorescence intensity (a.u.)
TCCCAAATTGAAATTATATGAATTTTATAGAACTAGATGACGGAGTCACCTAGTGCAG	25800 fluorescence intensity (a.u.)
AGCATAATTTTCGTACTGTACCATTTTGCTTGGGAACGAACGGAGTCACCTAGTGCAG	3660 fluorescence intensity (a.u.)
